Measured values as given in PMC12136788.
Numbering of substitutions follows the chain as printed. Some of the results follow.

T1: UNK ZnF1-3 (human, UniProt Q9C0B0 31-174)
T1 sequence: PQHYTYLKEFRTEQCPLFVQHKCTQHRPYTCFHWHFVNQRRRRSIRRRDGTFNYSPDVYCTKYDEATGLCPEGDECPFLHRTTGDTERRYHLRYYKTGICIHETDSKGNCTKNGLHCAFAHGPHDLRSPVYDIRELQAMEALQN

B1: 71200049_71200440_1770_CDS_ENSMUSG00000031386_ENSMUST00000033761|mouse|control|control (ssRNA)
RNA: GGGAGUUCUACAGUCCGACGAUCAGGACCAGUCACUUUGAGAACAGCAGGGACACCUUGAGUCCUGGCUGCAGUGGGCACAGAAAUGGAGCUGCCUGGCACUGUCGGCAAGACCUGGAUGGUGGUUGUGCUUGGGGGUGCAGUCAACAGAGGAUUGAGCAUCA
B2: chr1:173703207:173703208:+_ENSG00000076321_ENST00000209884|hu_hu|FALSE|FALSE (ssRNA)
RNA: GGGAGUUCUACAGUCCGACGAUCAGCAGCUGGCAGAAGAGUCUGAACAUUGCCCUCUUCUACUGUUAUCUGGGAGGUAUACGCAAAGUCAAUCAGUAAUUCCAUAGCCCUCUCGUCAAUGUCUCGGAUCACUACUUCUGUCUGCAACAGAGGAUUGAGCAUCA
B3: chrX:71549762:71549763:+_ENSMUSG00000019087_ENSMUST00000019231|mus_mus|mus_mus_mus_hu_False|58_68 (ssRNA)
RNA: GGGAGUUCUACAGUCCGACGAUCAAACCCGUGUACUUCUUAUUGUUAGCACAACAUCACCAGAAAAAAAACAUAACAGCUAAGCUGGACAGACAGUUAAGUAGUACUUCCACACUCCCAAACUCAGGGAGCCCUAUAACCUUACAACAGAGGAUUGAGCAUCA
B4: 89385523_89385643_863_CDS_ENSMUSG00000031652_ENSMUST00000034074|mouse|control|control (ssRNA)
RNA: GGGAGUUCUACAGUCCGACGAUCUUCAUCUCUAGCACUACUCGGUCCUGUGGCAGCACUCUGUGUGUACUCUGGUGGCCGUACAUCUCCAACAGUAAUGACAUCAUCAUCUGUUUCAAACAGACUCUCUUCCCCUUGUGUGAGCAACAGAGGAUUGAGCAUCA
B5: chr2:207024631:207024632:+_ENSG00000114942_ENST00000392222|hu_mus|FALSE|FALSE (ssRNA)
RNA: GGGAGUUCUACAGUCCGACGAUCGGGGAGCUGUGCAAAAGCGGAGGACGAGAGCGCCGGGAGGCCGCGGCCAGCGCUGAGGGAAAAAAAGGACCCAGAGCGUCCGGAAAACUCCUUAUAUAGAGACGGAGGCGUUUCCCUCCGCAACAGAGGAUUGAGCAUCA
B6: chr2:30816663:30816664:-_ENSMUSG00000026849_ENSMUST00000028200|mus_hu|FALSE|FALSE (ssRNA)
RNA: GGGAGUUCUACAGUCCGACGAUCCCUCACACACAUUUUCACAUGUCUGUACUCCAAAGGCAGGAAGGGGAUAAAGUAAUCAAUGAGGUUUUUGUCGAUCAGUCCACUGUGCCACAGGCCACUGUGUUUAUUAUUGAAGACUCCCAACAGAGGAUUGAGCAUCA
B7: chr3:176767854:176767855:-_ENSG00000177565_ENST00000430069|hu_hu|hu_hu_hu_mus_False|98_108 (ssRNA)
RNA: GGGAGUUCUACAGUCCGACGAUCGACAUCCUUGUUGCUUGGAACAUCCUGCCCUCCUUCCCGUAUGCAGUGUCUAAGCACGAGCUGCGUAGGGCCACUCGUGCUGUUCUCACUGAGGUUCCAGAUUCUUGCCGUGGAGUCUCCCAACAGAGGAUUGAGCAUCA
B8: 128987363_128987794_1838_CDS_ENSG00000181789_ENST00000314797|human|control|control (ssRNA)
RNA: GGGAGUUCUACAGUCCGACGAUCUGCUGUGAUGGGGGUACUUUCUGUUCUCUGCUCUGCCAUGGGCGCCGUGGCCAGGGGCACAGACUUGAGGUCAAAAGGUUUUUCUGAUGGUUCUAGAGUGUACUGCUGCAGAGCCCUCUCCAACAGAGGAUUGAGCAUCA
B9: chr11:77336104:77336105:-_ENSG00000074201_ENST00000525064|hu_mus|hu_hu_hu_mus_False|28_108 (ssRNA)
RNA: GGGAGUUCUACAGUCCGACGAUCCUCGCACAUUGCAGUGAACAUCGCCUCCAAUGCUGACUUAUCACUGGGCACAAAUCGAAAUUCAGAAAUGGGUUCAACAUCAUCAUCACUGUCCUCAUCUUCAUCAGAGAGAGGUUCUUUCAACAGAGGAUUGAGCAUCA
B10: chr8:117878989:117878990:-_ENSG00000164754_ENST00000297338|hu_hu|hu_hu_hu_mus_True|8_98 (ssRNA)
RNA: GGGAGUUCUACAGUCCGACGAUCCCAGAGGCCCUCGUUUACUGAGAACAAAAUGUGCGUAGAACAUUUUUCUUAUUUGCUAUGAAAUAAGAAGAAACCUGGAUCUCGGCGGGGAGCCGGGAGGGGUUGGGUGGCCCGGGAGGGCAACAGAGGAUUGAGCAUCA
B11: chr5:138634757:138634758:+_ENSMUSG00000036968_ENSMUST00000110934|mus_mus|FALSE|FALSE (ssRNA)
RNA: GGGAGUUCUACAGUCCGACGAUCAUAUAGCCCACAUGUCUACCCCAUCUAACCCGAGUAUUGCUUCACUCUCUUCCAGCAUCCUGUUCUUAUUCACAGAUUGAUGGUAUACGGCCUCAUGUUUGCAGUGUAUAUUGGUUCUUGCAACAGAGGAUUGAGCAUCA
B12: chr3:176767854:176767855:-_ENSG00000177565_ENST00000430069|hu_hu|hu_hu_hu_mus_False|38_88 (ssRNA)
RNA: B7 RNA with G36A, U39G, A42C, A45G, C48U, C99G
B13: chr14:56483160:56483161:+_ENSMUSG00000075592_ENSMUST00000168479|mus_mus|FALSE|FALSE (ssRNA)
RNA: GGGAGUUCUACAGUCCGACGAUCAAUUCCUUUAUCUCCCACAGAUGUUGAAGACUGCCCUACUUGCAGAAGUCCCGGGCUAACCUUCUCUUUGAUACCACAACCCCCUGGCACCACCGAUAAACUGAUGAUUUUGGAGGGAAUCAACAGAGGAUUGAGCAUCA
B14: chr1:215793774:215793775:+_ENSG00000136636_ENST00000259154|hu_hu|motif|central (ssRNA)
RNA: GGGAGUUCUACAGUCCGACGAUCAUAGGGAACUUUCUUUCUUCCAAGGAAUCCUCCCCCUUCAAAUCCUCCUUUCUUCCGGAACUCGGUUUUAUUUUCAUUUUCAUCUUCUGAUGACCUUUUCUUGGAUUCUGAAAAACCUUCCAACAGAGGAUUGAGCAUCA
B15: chr17:60744165:60744166:+_ENSG00000011028_ENST00000303375|hu_hu|FALSE|FALSE (ssRNA)
RNA: GGGAGUUCUACAGUCCGACGAUCGUUGAGGUACUUGAGGGGCGAGUUGUCCGACCACUGCCAGCCUCCGCUCGUGUCCAAGUCAUUCAAGCCGAUCCACAGGGUGGAGCUGUACCCAGUGAGGAGGCCGUUGAUGUAGGUCUGCAACAGAGGAUUGAGCAUCA
B16: chr7:56126341:56126342:+_ENSG00000146731_ENST00000540286|hu_mus|hu_hu_hu_mus_True|88_108 (ssRNA)
RNA: GGGAGUUCUACAGUCCGACGAUCCAUAUUUCUCCUUUUGGCUCUGCGCAGAGCAACGAUCCCUUCUUUCGCAAGGGCAUCUAAGGAAAAGGGGUCAAUCCCCUUUUGAUUAAUAACGACAAAUCCUUUAUCUGAGUCACCACACAACAGAGGAUUGAGCAUCA
B17: chrX:98862621:98862622:+_ENSMUSG00000034160_ENSMUST00000044475|mus_hu|mus_mus_mus_hu_False|28_58 (ssRNA)
RNA: GGGAGUUCUACAGUCCGACGAUCCUGCAUCUCCUUUAGAGUGUUUCCCAUAUUAGAGUAGGCAUCAGCAAAGGUAGGACUAAUUCGAAUAGCCUCCUUAUAAUGCAUCAGUGCUUCCUGCAGUUUUCCCUGCUGCUGCAGUACCAACAGAGGAUUGAGCAUCA
B18: chr7:7679991:7679992:-_ENSG00000106399_ENST00000396682|hu_hu|hu_hu_hu_mus_False|58_58 (ssRNA)
RNA: GGGAGUUCUACAGUCCGACGAUCUGGGAUGAAUCUUUUCCAGCUUCCCCACGAAGCACACGGGCCGGUCGAUAUACUGAGCUAGCAUGCUGGCGUUGACGCGCGCUUUGGGGAGCUGCAUUAUGUCCUCCAUGAUUCUGCCGCCAACAGAGGAUUGAGCAUCA
B19: 33346105_33346518_650_3pUTR_ENSG00000198042_ENST00000360128|human|control|control (ssRNA)
RNA: GGGAGUUCUACAGUCCGACGAUCUACUAAGCCGGACCCGUUCCCAGAGACGCCGAGGAAAAGCCGCUCGUUCUAUAACCUUCAUAUACAAGUAGCACUGUCCUUUCUCUUCUUUAAUAGUGGCAUACUGACUAUUUGCCAGGGCAACAGAGGAUUGAGCAUCA
B20: chr6:41757443:41757444:+_ENSG00000214736_ENST00000398881|hu_mus|hu_hu_hu_mus_False|38_38 (ssRNA)
RNA: GGGAGUUCUACAGUCCGACGAUCGAACCGUGCAGAGGCAACAUCUCAGCCGACACUGGGGGAUGGGGGGGCAGUGGGGGGGGGUUCAGGCAAGGAGAAGAAAAGUGCUUCAGCUGCCACUCAGGUAGGAUCUUGUGGUCACAGCAACAGAGGAUUGAGCAUCA
B21: chr3:176767854:176767855:-_ENSG00000177565_ENST00000430069|hu_hu|hu_hu_hu_mus_False|88_108 (ssRNA)
RNA: B7 RNA with U39G, A42C, A45G, C48U
B22: chr8:121455507:121455508:-_ENSG00000172172_ENST00000306185|hu_mus|motif|central (ssRNA)
RNA: GGGAGUUCUACAGUCCGACGAUCUGCAGUUUGUUGGAUGCUAUAACCGCAAGUUUGCCAGGGGGCUGCAUUUUGCCAUCGGAGAGAUACCACAUUCGAGCAAAAGUGGCCCAUUGCUGGGGCGCCCUAGAGAAGCUGGACAUGCAACAGAGGAUUGAGCAUCA

Molecular target: T1, UNK ZnF1-3
Experiment: nsRBNS (natural sequence RNA bind-n-seq); RBNS binding buffer (assumed for nsRBNS): 25 mM Tris pH 7.5, 150 mM KCl, 3 mM MgCl2, 0.01% Triton X-100, 500 ug/ml BSA, 20 U/ml SUPERase-In, 4 C; UNK is unkempt and MSI1 is Musashi-1; names of the RNAs are library labels; protein concentration not given here; high values mean tight binding

Binder	binding signal [enrichment R]
B1	0.999
B2	1.27
B3	1.4
B4	0.677
B5	2.12
B6	1.06
B7	0.553
B8	0.853
B9	1.08
B10	1.59
B11	0.696
B12	0.49
B13	0.927
B14	0.42
B15	0.928
B16	1.01
B17	0.915
B18	0.495
B19	1.13
B20	1.29
B21	0.409
B22	1.1
